# Laboratory results from the supplement of paper PMC10600219.
# Structures can show the parent of a compound that is named as a salt. Over roughly 2,800 compounds, “cell viability relative to vehicle” has its median near 1.1; the lowest 2% begin near 0.19. The list shows a part of the results.
# Tested on: NCI-H2228 parental
# Assay: cell viability relative to vehicle (fraction of vehicle); NCI-H2228 is an ALK-positive lung cancer line and DTP means drug-tolerant persister; higher = less growth inhibition
# Settings: 100 nM; treatment time 6 days
# Method in brief: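 Each value is viability relative to vehicle-treated cells, measured as ATP with the CellTiter-Glo 3D Cell Viability Assay. Parental NCI-H2228 cells and drug-tolerant persisters (1000 nM targeted drug, 13 days) in 384-well plates received the 3114-agent TargetMol anti-cancer compound library at 100 nM, or DMSO, and were read 6 days later.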
row,Structure (SMILES),cell viability
1,CC(C)N(CCCNC(=O)Nc1ccc(C(C)(C)C)cc1)C[C@H]1O[C@@H](n2cc(Br)c3c(N)ncnc32)[C@H](O)[C@@H]1O,1.16
2,C=C1CC[C@@H]2[C@](C)(CO[C@@H]3O[C@H](CO)[C@@H](O)[C@H](O)[C@H]3O)CCC[C@@]2(C)[C@@H]1CCC1=CCOC1=O [Neoandrographolide],1.08
3,Cc1cc(NS(=O)(=O)c2ccc(N)cc2)no1 [Sulfamethoxazole],1.09
4,Nc1[nH]nc2nnc(-c3c(-c4ccccc4)nn4ccccc34)cc12,1.04
5,C[C@@H]1CC(=O)Nc2cccc(-c3ccc4c(c3)c(-c3cnn(C)c3)nn4C)c2N1,1.12
6,COc1cc(C(C)=O)ccc1OCCCN1CCC(c2noc3cc(F)ccc23)CC1 [Iloperidone],1.24
7,CCN(CC)CCNC(=O)c1c(C)[nH]c(/C=C2\C(=O)Nc3ccc(-c4csc(-c5ccccc5)n4)cc32)c1C [Amcasertib],1.09
8,Cc1cccc(C)c1N(CC(=O)Nc1ccc(-c2ncon2)cc1)C(=O)C1CCS(=O)(=O)CC1 [Amenamevir],0.857
9,COc1ccc(/C=C\c2cc(OC)c(OC)c(OC)c2)cc1O [Combretastatin A4],0.294
10,O=C([O-])CN(CCN(CC(=O)[O-])CC(=O)O)CC(=O)[O-].[Na+].[Na+].[Na+] [Edetate Trisodium],1.13
11,c1cc(-c2cnn3cc(-c4ccc(N5CCNCC5)cc4)cnc23)c2cccnc2c1,1.03
12,NCCCC[C@@H]1NC(=O)[C@@H](Cc2ccccc2)NC(=O)[C@H](CC(=O)O)NC(=O)CNC(=O)[C@H](CCCN=C(N)N)NC1=O [Cyclo (-RGDfK)],1.09
13,Cn1c(=O)c(Oc2ccc(F)cc2F)cc2cnc(NC(CCO)CCO)nc21 [Pamapimod],1.05
14,N#Cc1ccnc(Nc2cc(C3CCN(C4COC4)CC3)cc(N3CCC(F)(F)C3)n2)c1,0.96
15,CC(C(=O)O)c1cccc(C(=O)c2ccccc2)c1 (stereo unspecified) [Ketoprofen],1.22
16,O[C@@H]1[C@H](O)[C@H](O)CO[C@H]1O [D-(-)-Ribose],1.09
17,CCCCN(Cc1ccc(C(=O)NO)cc1)C(=O)Nc1ccccc1 [Nexturastat A],0.964
18,Cn1c(=O)cc(C(=O)Nc2ccc3c(c2)OCCO3)c2ccccc21,0.98
19,CNC(=O)c1ccccc1Nc1nc(Nc2ccc(N3CCOCC3)cc2OC)ncc1Cl,0.484
20,CC1=C(C(=O)Nc2cc3cn[nH]c3cc2F)C(c2ccc(C(F)(F)F)cc2)CC(=O)N1 (stereo unspecified),1.08
21,O=NN(CCCl)C(=O)NCCCl [Carmustine],1.16

row,Structure (SMILES),cell viability
1,CCOC(=O)c1ncn2c1CN(C)C(=O)c1cc(F)ccc1-2 [Flumazenil],1.09
2,COc1cc(/C=C/c2ccc(O)cc2)cc(OC)c1 [Pterostilbene],0.953
3,Cc1cc(C(=O)Nc2nc3cccc(Cl)c3n2[C@@H]2CCCCN(C(=O)/C=C/CN(C)C)C2)ccn1 [Nazartinib],1.09
4,Cn1c(=O)n(-c2ccc(C(C)(C)C#N)cc2)c2c3cc(-c4cnc5ccccc5c4)ccc3ncc21 [Dactolisib],0.258
5,C[C@@H]1CC[C@]2(C(=O)O)CC[C@]3(C)C(=CCC4[C@@]5(C)CC[C@H](O[C@@H]6OC[C@H](O)[C@H](O)[C@H]6O)C(C)(C)C5CC[C@]43C)[C@@H]2[C@]1(C)O (stereo partly specified) [Ziyuglycoside II],1.12
6,CCOc1cc(CC(=O)N[C@@H](CC(C)C)c2ccccc2N2CCCCC2)ccc1C(=O)O [Repaglinide],1.02
7,O=C(O)C(Cc1c[nH]c2ccccc12)N1C(=O)c2ccccc2C1=O (stereo unspecified),1.05
8,C#C[C@]1(O)CC[C@H]2[C@@H]3CCc4cc(O)ccc4[C@H]3CC[C@@]21C [Ethynyl estradiol],1.24
9,COc1cc(F)c(F)c(Nc2ccc(I)cc2F)c1NS(=O)(=O)C1(C[C@H](O)CO)CC1 [Refametinib],1.01
10,O=C(O)c1ccc(N2C(=O)/C(=C\c3ccc(-c4ccc([N+](=O)[O-])cc4)o3)C=C2c2ccccc2)cc1 [4E1rcat],1.11
11,CC(C)n1cnc2c(-c3cnc(N)nc3)nc(N3CCOCC3)nc21 [Desmethyl-VS-5584],0.867
12,Cc1nc2cccc(N)c2c(=O)n1C1CCC(=O)NC1=O (stereo unspecified) [Avadomide],1.18
13,CC#CC(=O)Nc1ccc2ncnc(Nc3cccc(Br)c3)c2c1,0.962
14,O=S(=O)(c1ccccc1)N(CC(F)(F)F)c1ccc(C(O)(C(F)(F)F)C(F)(F)F)cc1,0.943
15,O=C(O)Cn1c2c(c3cc(F)ccc31)CN(C(=O)c1cccc3ccccc13)CC2 [Setipiprant],1.18
16,CC(C)(CCCCCC(O)CCCCCC(C)(C)C(=O)O)C(=O)O,1.1
17,Nc1nc2c(ncn2COCCO)c(=O)[nH]1 [Aciclovir],1.33
18,Cc1cc(O)c(C(=O)CCC(C)C)c(=O)o1 [Pogostone],1.04
19,COc1ccc(S(=O)(=O)Nc2c(C)cc(C)cc2C)cc1,1.04
20,Oc1ccc(-c2c(-c3ccccc3)nn3c(C(F)(F)F)cc(C(F)(F)F)nc23)cc1,0.97
21,COc1ccc2[nH]c([S@@+]([O-])Cc3ncc(C)c(OC)c3C)nc2c1 [Esomeprazole Magnesium],1.21

row,Structure (SMILES),cell viability
1,CC(C)NCC(O)c1ccc(O)c(O)c1 (stereo unspecified) [Isoprenaline hydrochloride],0.859
2,CS(=O)(=O)N1CCN(Cc2cc3nc(-c4cccc5[nH]ncc45)nc(N4CCOCC4)c3s2)CC1 [Pictilisib],0.869
3,COc1ncnc(NS(=O)(=O)c2ccc(N)cc2)c1OC [Sulfadoxine],1.2
4,Nc1nc2cc(-c3ccc4ncc(C(=O)N5CCOCC5)n4c3)ccc2o1 [Serabelisib],1.11
5,COc1c(N2C[C@@H]3CCCN[C@@H]3C2)c(F)cc2c(=O)c(C(=O)O)cn(C3CC3)c12 [Moxifloxacin hydrochloride],1.02
6,CC(C)(C)c1ccc(C(=O)NC(=S)Nc2ccc(N)cc2)cc1 [Tenovin3],0.844
7,CCc1ccc(-c2nc(CSCC(=O)NCCc3ccccc3)c(C)o2)cc1,1.1
8,Cc1ccc2nc(CN(CCN(Cc3nc4ccc(C)cc4[nH]3)Cc3nc4ccc(C)cc4[nH]3)Cc3nc4ccc(C)cc4[nH]3)[nH]c2c1,1.02
9,N[C@@H](Cc1c[nH]c2ccccc12)C(=O)O [L-Tryptophan],1.15
10,Nc1c(S(=O)(=O)c2ccccc2)c2nc3ccccc3nc2n1-c1ccc(F)cc1,0.984
11,Cc1ncc(-c2ccnc(Nc3ccc(S(C)(=O)=O)cc3)n2)n1C(C)C,0.785
12,Cc1c(NC(=O)c2cccnc2)c(=O)n(-c2ccccc2)n1C [Nifenazone],1
13,N#Cc1ccc(-c2csc(NN=C3CCCC3)n2)cc1 [Remodelin hydrobromide],1.07
14,O=C(/C=C/c1ccc(O)cc1)c1ccc(O)cc1O [Isoliquiritigenin],1.21
15,CS(=O)(=O)OCCCCOS(C)(=O)=O [Busulfan],0.927
16,O=C(Nc1ccccc1)C12CC1C(=NO)c1ccccc1O2 (stereo unspecified),1.02
17,N#CCNC(=O)c1ccc(-c2ccnc(Nc3ccc(N4CCOCC4)cc3)n2)cc1 [Momelotinib],0.984
18,Cc1ccc(C(=O)Nc2ccc(Oc3cc4cnn(C)c4cc3-c3cn[nH]c3)c(F)c2)c(=O)n1-c1ccc(F)cc1 [Merestinib],1.16
19,OCc1c[nH]c2ccccc12 [Indole-3-carbinol],1.11
20,CC(C)(CO)c1cc2cc(NC(=O)C3(c4ccc5c(c4)OC(F)(F)O5)CC3)c(F)cc2n1C[C@@H](O)CO,1.12
21,CN1C(=O)CC[C@H]1c1cccnc1 [(-)-Cotinine],1.13

row,Structure (SMILES),cell viability
1,Cc1c(CN2CCN(C(=O)[C@H](C)O)CC2)sc2c(N3CCOCC3)nc(-c3cnc(N)nc3)nc12 [Apitolisib],0.524
2,CN1CCc2c(c3ccccc3n2Cc2ccc(C(=O)NO)cc2)C1 [Tubastatin A HCl],1.02
3,Oc1ccc(C(c2c[nH]c3ccccc23)c2c[nH]c3ccccc23)cc1,1.06
4,CC[C@@H]1C(=O)OC[C@@H]1Cc1cncn1C [(+)-Pilocarpine hydrochloride],1.14
5,CC[C@@H]1C(=O)OC[C@@H]1Cc1cncn1C [Pilocarpine nitrate],1.04
6,COc1nc(OCc2cccc(-c3ccccc3)c2C)ccc1CNCCNC(C)=O [PD1-PDL1 inhibitor 2],1.11
7,CNc1cc(-c2cccc(Cl)c2Cl)nc(N)n1 [TH287 hydrochloride],1.09
8,CCC(C)(Oc1ccc(C2(c3ccc(OC(C)(CC)C(=O)O)cc3)CCCCC2)cc1)C(=O)O (stereo unspecified) [Clinofibrate],1.12
9,COc1ccc(S(=O)(=O)N[C@@H](CNc2nc(C)nc(N3CCC(c4ccc5c(n4)NCCC5)CC3)c2C)C(=O)O)cc1,0.705
10,"CC(C)=CCC(OC(=O)C=C(C)C)C1=CC(=O)c2c(O)ccc(O)c2C1=O (stereo not drawn) [beta, beta-dimethylacrylshikonin]",1.03
11,COc1cc2nccc(Oc3ccc(NC(=O)NC4CC4)c(Cl)c3)c2cc1C(N)=O [Lenvatinib],1.17
12,c1nc2c(NC3CCCCC3)nc(Nc3ccc(N4CCOCC4)cc3)nc2[nH]1 [Reversine],1.02
13,CC(=O)c1cc2c(o1)C(=O)c1ccccc1C2=O [Napabucasin],0.953
14,"CC(=O)c1ccc(O)c(O)c1 [3',4'-Dihydroxyacetophenone]",1.13
15,CCN(CC)CC(=O)Nc1c(C)cccc1C [Xylocaine],1.09
16,c1ccc2c(CC3=NCCN3)cccc2c1 [Naphazoline hydrochloride],1.12
17,COc1cc(N2CCN(C)CC2)ccc1Nc1ncc2c(n1)N(C)c1ccccc1C(=O)N2,0.997
18,O=c1oc2c(O)c(O)cc3c(=O)oc4c(O)c(O)cc1c4c23 [Ellagic acid],1.12
